Experimental data from PubChem BioAssay AID504332 (National Center for Advancing Translational Sciences (NCATS), 2011).
The whole screen tested about 350,000 compounds, of which about 31,000 (8.9%) were called active. Inconclusive results, whose numbers are uncertain, are shown with a selection of clear calls. Calls come from the whole dose curve; as a rule, active = well fitted inhibition curve with a large enough effect; inconclusive = small, poorly fitted or top-dose-only effect; inactive = no such curve, though single readings can be large or run the other way. Where the call is inconclusive, the potency comes from a doubtful curve fit.

The compounds below were run against Histone-lysine N-methyltransferase EHMT2 (Homo sapiens) (UniProt Q96KQ7) (assay: qHTS Assay for Inhibitors of Histone Lysine Methyltransferase G9a). Details: G9a H3K9 monomethylation, AlphaScreen, 2 h; activity, negative = inhibition: at 59 µM (top of the series) unless noted.
Sequence of UniProt Q96KQ7 (Q96KQ7 whole entry, looked up): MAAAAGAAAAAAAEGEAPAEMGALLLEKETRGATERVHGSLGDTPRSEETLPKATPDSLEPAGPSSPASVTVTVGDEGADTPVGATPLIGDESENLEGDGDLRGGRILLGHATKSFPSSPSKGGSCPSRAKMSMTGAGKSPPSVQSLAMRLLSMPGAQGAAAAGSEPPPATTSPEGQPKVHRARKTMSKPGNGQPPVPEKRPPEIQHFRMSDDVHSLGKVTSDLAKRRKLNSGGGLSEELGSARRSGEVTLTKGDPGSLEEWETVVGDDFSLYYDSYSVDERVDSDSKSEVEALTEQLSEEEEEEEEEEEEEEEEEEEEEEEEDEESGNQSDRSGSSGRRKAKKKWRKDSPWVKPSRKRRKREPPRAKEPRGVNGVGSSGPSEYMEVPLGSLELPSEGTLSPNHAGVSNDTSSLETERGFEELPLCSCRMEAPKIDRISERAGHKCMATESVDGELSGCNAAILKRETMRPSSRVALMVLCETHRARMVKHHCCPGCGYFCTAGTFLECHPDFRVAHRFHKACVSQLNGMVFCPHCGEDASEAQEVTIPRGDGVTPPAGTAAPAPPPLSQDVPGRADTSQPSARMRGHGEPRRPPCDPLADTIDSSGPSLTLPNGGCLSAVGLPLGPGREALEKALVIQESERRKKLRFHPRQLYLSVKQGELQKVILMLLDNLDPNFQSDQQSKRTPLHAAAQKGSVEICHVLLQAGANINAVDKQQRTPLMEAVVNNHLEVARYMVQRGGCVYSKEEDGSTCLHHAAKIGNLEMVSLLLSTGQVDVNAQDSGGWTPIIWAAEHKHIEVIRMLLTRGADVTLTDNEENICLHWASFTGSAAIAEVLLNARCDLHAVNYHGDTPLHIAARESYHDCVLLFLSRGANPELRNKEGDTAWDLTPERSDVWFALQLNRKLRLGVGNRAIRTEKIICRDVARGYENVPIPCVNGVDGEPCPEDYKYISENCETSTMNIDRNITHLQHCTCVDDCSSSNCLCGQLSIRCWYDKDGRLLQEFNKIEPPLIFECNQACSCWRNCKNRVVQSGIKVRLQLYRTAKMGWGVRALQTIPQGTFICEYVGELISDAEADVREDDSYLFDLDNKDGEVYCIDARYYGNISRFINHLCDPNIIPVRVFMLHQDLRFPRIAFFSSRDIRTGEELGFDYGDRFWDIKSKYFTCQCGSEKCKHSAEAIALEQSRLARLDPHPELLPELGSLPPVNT
How it was run: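 AlphaScreen detection with an anti-monomethyl H3K9 antibody quantified product after a 2 h room-temperature reaction containing 500 nM biotinylated H3K9 peptide, 20 µM SAM and 20 nM enzyme, which had been preincubated 15 min with compound.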
% is set by controls: 0 for no effect and ±100 for the full control effect; potency is the fitted concentration of half-maximal effect; tags give direction and shape of the fitted curve.
Note: nearly all actives have a fitted effect of over 75% in size.

Structure (SMILES)	Potency	activity, negative = inhibition
Nc1c(C(=O)Nc2ccc(F)cc2)sc(=S)n1-c1ccccc1F	active: 7.94 µM	
COc1ccc(N2C(=O)CC(n3c(CCCCO)nc4ccccc43)C2=O)cc1 (centres undefined)	inconclusive: 2.51 µM [inhibitor, partial curve, poor fit]	
Cn1c(SCC(=O)NC2CCCCC2)nnc1-c1cccc(N)c1	active: 1.58 µM	
COc1ccc(-c2nnc3sc(-c4ccco4)nn23)cc1OC	inconclusive: 2.82 µM [inhibitor, partial curve, poor fit]	
CCCc1nc(SCC(=O)NNC(=O)C2CCCCC2)c2ccccc2n1	inactive	
O=C(NCCSCc1ccco1)Nc1ccc(Cl)cc1	inconclusive: 20 µM [inhibitor, partial curve, poor fit]	
COc1cccc(CN2CCN(C(=O)c3oc4c(F)cccc4c3C)CC2=O)c1	inactive	
N#Cc1cc2c([nH]c1=S)CCCCCC2	inconclusive: 2 µM [inhibitor, full curve, poor fit]	
Cc1ccc(NS(=O)(=O)c2cc(C(=O)N3CCN(C)CC3)ccc2C)cc1	inactive	
CCN1C=C(Cc2ccc(F)cc2)C2=C(C1)C(c1ccc(F)cc1)C(C#N)=C(N)O2 (centres undefined)	inconclusive: 28.2 µM [inhibitor, single point]	
CO/N=C/c1ccc(Sc2ccc(C)cc2)c([N+](=O)[O-])c1	inconclusive: 10 µM [inhibitor, full curve, poor fit]	
CC(=O)c1c(C)[nH]c(C(=O)N2CCN(S(=O)(=O)c3ccc(C)cc3C)CC2)c1C	inconclusive: 3.98 µM [inhibitor, single point]	
CCOc1ccc(-n2nnnc2SCC(=O)NC2CCCC2)cc1	inactive	
Cn1nc(C(F)(F)F)c(C#N)c1N1CCN(c2ccccc2)CC1	inconclusive: 50.1 µM [inhibitor, partial curve, poor fit]	
O=C(CCNS(=O)(=O)c1ccccc1C(F)(F)F)N1CCN(c2ccccc2O)CC1	inconclusive: 50.1 µM [inhibitor, partial curve, poor fit]	
COc1ccc(-c2nnc(SC)o2)c(OC)c1	active: 39.8 µM	
N#Cc1c(Nc2cccc(F)c2)sc(C(=O)c2ccc(Cl)cc2)c1N	active: 11.2 µM	
CCOC(=O)C1=C(C)NC(SC)=NC1c1ccc(OC)cc1 (centres undefined)	inconclusive: 1.58 µM [inhibitor, full curve, poor fit]	
CN(C)CCCNC(=O)c1cc(C(=O)c2cccc(Cl)c2Cl)c[nH]1	inconclusive: 89.1 µM [inhibitor, single point]	
CCOC(=O)c1cc(-c2ccccc2)nn1Cc1cc(CC)no1		inactive: 20.9% [at 2.33 µM]
O=C(CN1C(=O)S/C(=C\c2ccccc2)C1=O)Nc1cc([N+](=O)[O-])ccc1O	inconclusive: 79.4 µM [inhibitor, partial curve, poor fit]	
CSc1ccc2nnc(-c3cccc(F)c3)n2n1	active: 39.8 µM	
O=C(Nc1cccc(C(F)(F)F)c1)Nc1nnc(N2CCCCC2)s1	inconclusive: 35.5 µM [inhibitor, partial curve, poor fit]	

Structure (SMILES)	Potency	activity, negative = inhibition
C/C(CC(=O)NC(C)(C)C)=N\NC(=O)c1ccccc1N	inconclusive: 1.41 µM [inhibitor, full curve, poor fit]	
CCN(CC)c1ccc(S(=O)(=O)N2CCOCC2)cc1NC(=O)CN1CCc2ccccc2C1	inconclusive: 39.8 µM [inhibitor, single point]	
CC(C)N(C1=CC(=O)OC12CCCCC2)C(C)C	inactive	
COC(=O)c1[nH]c(C)c(/C(O)=C2\C(=O)C(=O)N(CCCN3CCOCC3)C2c2ccccn2)c1C (centres undefined)	inconclusive: 3.16 µM [inhibitor, partial curve, poor fit]	
CCCCc1ccc(CC(=O)Nc2cc(S(=O)(=O)N3CCOCC3)ccc2O)cc1	inconclusive: 3.16 µM [inhibitor, partial curve, poor fit]	
CCOC(=O)C1CCCN(c2c(NCc3ccco3)c(=O)c2=O)C1 (centres undefined)	inconclusive: 50.1 µM [inhibitor, partial curve]	
O=C(COC(=O)c1cc(S(=O)(=O)N2CCOCC2)ccc1Cl)Nc1ccccc1Cl	inconclusive: 89.1 µM [inhibitor, partial curve, poor fit]	
COc1cc(C2C3=C(CC(C)(C)CC3=O)NC3=C2C(=O)c2ccccc23)ccc1O (centres undefined)	active: 44.7 µM	
COc1ccc(NC(=O)CSc2c(C)n[nH]c2C)cc1	inconclusive: 50.1 µM [inhibitor, partial curve]	
CCn1c(COc2cccc(OC)c2)nnc1SCC(=O)NC1CCCC1	inactive	
Cc1cccnc1NC(=S)NC(=O)c1oc2ccccc2c1C	inconclusive: 79.4 µM [inhibitor, single point]	
CC(C)(C)c1nnc2sc(SCC(=O)NCc3ccco3)nn2c1=O	inconclusive: 31.6 µM [inhibitor, single point]	
CN(c1ccccc1)S(=O)(=O)c1ccc(NC(=S)NC(=O)C2CC2)cc1	inconclusive: 3.55 µM [inhibitor, partial curve]	
COc1ccc(N(C(=O)COc2ccccc2OC)S(=O)(=O)c2ccc(Cl)cc2)cc1	inactive	
Cc1ccc2nc(NC(=O)CN3C(=O)NC4(CCCC4)C3=O)sc2c1	inconclusive: 31.6 µM [inhibitor, partial curve]	
CN(C)C(=O)c1ccc(Cl)cc1[N+](=O)[O-]	inconclusive: 89.1 µM [inhibitor, partial curve, poor fit]	
CC1=CC(C)(C)N2C(=O)C3(N=C(N)NC(Nc4ccccc4)=N3)c3cc(C)cc1c32 (centres undefined)	inconclusive: 39.8 µM [inhibitor, single point]	
O=C(O)CCc1ccc(S(=O)(=O)Nc2ccc(OCc3ccccc3)cc2)cc1	active: 44.7 µM	
COc1ccccc1C1/C(=C(\O)c2ccc3c(c2)OCCO3)C(=O)C(=O)N1Cc1cccnc1 (centres undefined)	inconclusive: 70.8 µM [inhibitor, single point]	
CC(C)(C)NC(=O)Cn1ccc(=N)c2ccccc21	inactive	
CN(C)c1ccc(NC(=O)CSCc2nc3c(nnn3Cc3ccc(F)cc3)c(=O)[nH]2)cc1	inconclusive: 2 µM [inhibitor, partial curve, poor fit]	
CCOc1ccc(CCNC(=O)C2CCC(CNS(=O)(=O)c3ccc(Cl)cc3)CC2)cc1OCC (centres undefined)	inactive	
CC(C)=CCN1CCN(Cc2cccn2-c2ncccn2)CC1CCO (centres undefined)	inactive	

Structure (SMILES)	Potency	activity, negative = inhibition
Cc1ccc(NC(=O)CCN2CCc3ccccc3C2)cc1	inconclusive: 50.1 µM [inhibitor, partial curve, poor fit]	
COC(=O)C(C(=O)OC)c1ccc(-n2cccc2)cc1		inconclusive: -57.4% [inhibitor]
COc1cccc(C(=O)CN2CCN(S(=O)(=O)c3cccc([N+](=O)[O-])c3)CC2)c1	active: 20 µM	
COc1ccc(C2=CC(=O)C[C@H](c3ccc(OC)cc3)C2)cc1		inactive: 9.68% [at 2.33 µM]
O=C(c1ccco1)[C@@H]1[C@@H]2C(=O)N(c3ccc(F)cc3)C(=O)[C@@H]2C2c3ccccc3C=CN21 (some centres undefined)	active: 3.16 µM	
O=C1CC(c2cccs2)CC(O)=C1C=NCCN1CCNCC1 (centres undefined)	inconclusive: 50.1 µM [inhibitor, partial curve, poor fit]	
CCNC(=S)N1CCN(c2nc(-c3cccc(OC)c3)cs2)CC1	active: 79.4 µM	
Cc1noc(C)c1COc1ccc(C(=O)N2CCCC(C(F)(F)F)C2)cc1 (centres undefined)	inactive	
CCN(CC)c1ccc(NC(=O)CCCCCN2C(=O)c3ccccc3C2=O)cc1	active: 2.51 µM	
Cc1ccc(-n2ncc3c(NCc4cccnc4)ncnc32)cc1C	inconclusive: 50.1 µM [inhibitor, partial curve, poor fit]	
O=C(CC1SC(=O)N(c2ccccc2)C1=O)Nc1cccc2ccccc12 (centres undefined)		inconclusive: -89% [inhibitor]
CN(C(=O)CSc1nc(-c2ccc(C(C)(C)C)cc2)c(C#N)c(=O)[nH]1)C1CCCCC1	active: 44.7 µM	
COC(=O)N/N=C/c1cn(CC(C)COc2ccccc2)c2ccccc12 (centres undefined)	inconclusive: 39.8 µM [inhibitor, single point]	
COc1cccc(CNC(=O)c2c(C)oc3nc(C)nc(N4CCOCC4)c23)c1	inactive	
Nc1nnc(/C=C/c2cccc([N+](=O)[O-])c2)s1	inconclusive: 0.708 µM [inhibitor, partial curve, poor fit]	
COc1ccc2ccccc2c1CNC(=O)CC1C(=O)NCCN1CC(C)C (centres undefined)	active: 44.7 µM	
C/C(=C\C(=O)c1ccc(C)cc1)Nc1ccc(N2CCOCC2)cc1	inconclusive: 79.4 µM [inhibitor, partial curve, poor fit]	
COc1cccc(/C=C/C(=O)OCC(=O)NC(=O)NC2CCCCC2)c1	inconclusive: 56.2 µM [inhibitor, partial curve, poor fit]	
CCCNC(=O)CSc1nnc(-c2ccccc2Br)n1-c1cccc(C(F)(F)F)c1	inconclusive: 31.6 µM [inhibitor, partial curve, poor fit]	
NS(=O)(=O)c1ccc(N/N=C/c2cn(-c3ccccc3)nc2-c2ccccc2)c([N+](=O)[O-])c1		inconclusive: -61.5% [inhibitor]
CC[C@@H](C)[C@@H](C(=O)N1CCNCC1)n1cc(CCC(=O)O)nn1		inconclusive: -78.1% [inhibitor]
CNC(=O)c1sc(-c2cccnc2)nc1C	inactive	
O=C(NNC(=S)NC(=O)c1ccc(F)cc1)c1cccnc1	active: 11.2 µM	
